Laboratory results: the RNAGym collection of RNA variant scans (doi:10.1093/nar/gkz1192)
The source gives no read counts; variants with many changes may rest on few reads.

B1: CPEB3 Ribozyme (parent)
chain: UAACAGGGGGCCACAGCAGAAGCGUUCACGUCGCAGCCCCUGUCAGAUUCUGGUGAAUCUGCGAAUUCUGCUGUAUAUCUC

Variants of: B1
Assay: self-cleavage, relative activity (ratio to wild type); higher = more cleavage; in vitro, sequencing
Procedure, shortened: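 Libraries of CPEB3 self-cleaving ribozyme mutants came from rounds of error-prone PCR and carried barcodes, which DNA sequencing matched to variants. In vitro transcription used T7 RNA polymerase at 37°C for 5 hours, with a further 15 min in DNase I before EDTA stopped the reaction; the ribozymes cleaved during both steps. The RNA was reverse transcribed with template switching and sequenced on Illumina. Relative activity is the cleaved/total read fraction of a variant divided by that of the unmutated ribozyme, averaged over three batches with at least 5 reads.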
In the case of A18G G24A A35G U72C, the self-cleavage is reported as 0.05. With A18G G30A A35G U54C U69C the self-cleavage was 0.1. In the case of A18G A57G U69G, the self-cleavage is reported as 0.2. A18G A57G U69C gave a self-cleavage of 1.05. Variant A18G G36A A45G U76C has a self-cleavage of 0.1. Variant A18G U26A G53U has a self-cleavage of 0.31. Work on A18G U25C U60A yielded a self-cleavage of 0.13. In the case of A18G U26C A57G U69A U72C, the self-cleavage is reported as 0.16. In the case of A18G U31C A45G G55A, the self-cleavage is reported as 0.07. A18G U25A A28U U60C U72G A75G gave a self-cleavage of 0.1. For A18G U26A U54C, the self-cleavage was 0.53. In the case of A18G A56G U58A, the self-cleavage is reported as 0.21. For A18G A56G A57G U67C, the self-cleavage was 0.29. For A18G U26A A45G, the self-cleavage was 0.32. A18G U26A U41C A45U gave a self-cleavage of 0.24. With A18G C62G U76A the self-cleavage was 0.26. Variant A18G G63U U67C has a self-cleavage of 0.27. A18G G24C U49A U54C U58C U60C showed a self-cleavage of 0.11. A18G C29A G33U showed a self-cleavage of 0.04. In the case of A18G U31A U48C, the self-cleavage is reported as 0.38. Variant A18G U25C U43C U48C has a self-cleavage of 0.12. A18G U26C U31A U41C U49C U66C showed a self-cleavage of 0.16. A18G U26C U41A A56G showed a self-cleavage of 0.23. In the case of A18G U25A U26C U49C U66C, the self-cleavage is reported as 0.08. A18G G22U U48C A65G U72C showed a self-cleavage of 0.14. In the case of A18G C38U U69A, the self-cleavage is reported as 0.1. A18G C62U U80C showed a self-cleavage of 0.22. A18G A75G A77U gave a self-cleavage of 0.77. For A18G C23U U48C U80C, the self-cleavage was 0.07. A18G G30A A47U U48A gave a self-cleavage of 0.18. Variant A18G G30A C40A U51C has a self-cleavage of 0.13. For A18G U31A C62U G63A, the self-cleavage was 0.17. Work on A18G G36U A56G A64U yielded a self-cleavage of 0.1. Variant A18G U26C A57G U58A U69A U74C has a self-cleavage of 0.11. For A18G C27A A57G U69C, the self-cleavage was 0.16. With A18G C39U G63A the self-cleavage was 0.34. A18G U26C U31C U72A U80C gave a self-cleavage of 0.06. Work on A18G C44U U51A A65G U72C yielded a self-cleavage of 0.15. A18G C38G G52C A75U U78C gave a self-cleavage of 0.18. A18G C38G C44U U48C U58A U69G A75U gave a self-cleavage of 0.12. A18G C37U C40U U51C gave a self-cleavage of 0.21. With A18G U25C U67C the self-cleavage was 0.06. In the case of A18G U25C C37A U54A A64C U72C, the self-cleavage is reported as 0.05. Variant A18G U25C U41C U74A has a self-cleavage of 0.42. A18G G19A A45G U67A gave a self-cleavage of 0.28. A18G C23G A35U A57G A64G U80C gave a self-cleavage of 0.03. Variant A18G U25A U78C has a self-cleavage of 0.09. Variant A18G U31A U49C G55A has a self-cleavage of 0.14. A18G U26C G33A A77U showed a self-cleavage of 0.06. Variant A18G C27U U31A C40U G61C has a self-cleavage of 0.08. A18G U25C U26A U60C showed a self-cleavage of 0.27. A18G U26C A35U A47G U60C U78C gave a self-cleavage of 0.07. For A18G G30A A35G A45U U54C U69C, the self-cleavage was 0.16. A18G U25C A64U A77C gave a self-cleavage of 0.46. For A18G G55C A64G, the self-cleavage was 0.19. Work on A18G G52U U76C yielded a self-cleavage of 0.99. For A18G C23U A28G U43A C50U U78A, the self-cleavage was 0.05. With A18G A57U A65G the self-cleavage was 0.21. A18G G63A A75G A77G gave a self-cleavage of 0.24. A18G C37A U54C A64U A65G gave a self-cleavage of 0.06. Variant A18G A57G U58A A65G has a self-cleavage of 0.17. With A18G A65U U74A U78A the self-cleavage was 0.2. In the case of A18G C38U U60A, the self-cleavage is reported as 0.19. In the case of A18G U26C A28G U49C, the self-cleavage is reported as 0. Variant A18G U26C U54A A75G U80A has a self-cleavage of 0.13. A18G U26C U51A U78A showed a self-cleavage of 0.3. Work on A18G U31A U41C yielded a self-cleavage of 0.31. A18G U25C G33A U41A U51A U72A gave a self-cleavage of 0. Work on A18G C32U C62U U69C yielded a self-cleavage of 0.11. Variant A18G G24A C32U U76A has a self-cleavage of 0.05. Work on A18G U26C G63A U66C C71G U78C yielded a self-cleavage of 0.02. Variant A18G A56U U58A U78C has a self-cleavage of 0.1. With A18G A57G A64U A75U the self-cleavage was 0.26. For A18G U25G G73U, the self-cleavage was 0.59. A18G C27G U31C A35U U43A gave a self-cleavage of 0.05. A18G C50U U80C showed a self-cleavage of 0.36. A18G G55A U66C U72A gave a self-cleavage of 0.17. With A18G C23G U25A U43A U72A A77U the self-cleavage was 0.05. In the case of A18G C29G U69C, the self-cleavage is reported as 0.25. Work on A18G G30C C38U U41C U72A yielded a self-cleavage of 0.07. A18G G52A U60G U72C showed a self-cleavage of 0.37. For A18G C37U U51A U58G, the self-cleavage was 0.23. In the case of A18G G22C U72C, the self-cleavage is reported as 0.29. Variant A18G C44G U74G U76G has a self-cleavage of 0.26.
